Laboratory results from the supplement of paper PMC3334620.
The full ranking holds about 33,000 sequences; the median of “E-score (-0.5 to 0.5)” is about -0.013, and the highest 2% start at about 0.3. The list shows a part of the results.

The sequences below were run against T1, Msn1 (UniProt P22148) (assay: PBM E-score (8-mer binding enrichment) (E-score (-0.5 to 0.5)); higher = stronger / more preferred TF binding; most listed sequences are background and not binding sites). Conditions: protein concentration: 200 nM; construct: GST-full length.
T1 sequence: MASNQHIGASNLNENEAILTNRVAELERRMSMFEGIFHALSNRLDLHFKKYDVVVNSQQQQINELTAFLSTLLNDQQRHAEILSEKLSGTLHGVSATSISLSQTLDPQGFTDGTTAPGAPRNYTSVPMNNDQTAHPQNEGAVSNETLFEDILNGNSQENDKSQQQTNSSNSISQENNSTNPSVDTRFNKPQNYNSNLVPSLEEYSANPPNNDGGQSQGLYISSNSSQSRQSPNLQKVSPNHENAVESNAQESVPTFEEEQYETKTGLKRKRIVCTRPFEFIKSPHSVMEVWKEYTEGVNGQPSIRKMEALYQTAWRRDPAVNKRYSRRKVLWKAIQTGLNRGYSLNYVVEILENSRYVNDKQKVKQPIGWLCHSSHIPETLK
Procedure, shortened: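 Yeast transcription factors carrying a GST tag, as full-length proteins or DNA-binding domains, were produced by PURExpress in vitro transcription/translation. About 100-200 nM protein was applied to universal all-10-mer Agilent arrays, double-stranded by primer extension on fresh or once-stripped slides. Bound protein was detected with fluorescent anti-GST, and scans were normalised with masliner. The Universal PBM Analysis Suite gave each ungapped eight-base word, pooled with its reverse complement, an E-score, a modified Wilcoxon-Mann-Whitney statistic.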

Compared with TCGTCGCA, CCATAACC is lower in “PBM E-score” value: -0.0341 for the first, -0.0962 for the second.

First: GACACTGC
Second: CTGGTGTC
The “PBM E-score” value of the first is higher: 0.13 for the first, -0.0278 for the second.

Going from CACAATCC to AAGGAGCA, the “PBM E-score” value falls from 0.119 to -0.109.

Going from CTCGACAG to ACTCACGA, the “PBM E-score” value rises from -0.14 to 0.0549.

Compared with ATTTTTAG, CTAGGGGA is lower in “PBM E-score” value: -0.0546 for the first, -0.307 for the second.

Compared with CAGTCACA, AATCTCAT is higher in “PBM E-score” value: -0.0815 for the first, 0.0888 for the second.

First: AGCCAAAT
Second: AAATGTCG
The “PBM E-score” value of the first is lower: 0.0175 for the first, 0.412 for the second.

First: CCGTCTGC
Second: ACAACGAG
The “PBM E-score” value of the first is higher: 0.0675 for the first, 0.0375 for the second.

Compared with ATGCGGTA, TATTACAA is higher in “PBM E-score” value: -0.01 for the first, 0.217 for the second.

Going from ACCTGAAA to AAGGGAGC, the “PBM E-score” value falls from 0.0221 to -0.124.

Compared with CAGCGGTC, ACTTCCGG is higher in “PBM E-score” value: -0.172 for the first, 0.131 for the second.

Compared with GATAAAGC, AAGCATGT is higher in “PBM E-score” value: 0.0285 for the first, 0.182 for the second.

Going from CCCAGTCA to CCGGATCC, the “PBM E-score” value rises from -0.227 to -0.0654.

First: ACCTGACA
Second: GGGTGTAC
The “PBM E-score” value of the first is higher: -0.0239 for the first, -0.0378 for the second.

First: ATTACTGG
Second: ACTATGTG
The “PBM E-score” value of the first is lower: -0.119 for the first, -0.0783 for the second.

Compared with GTAGTCGA, AGTACATG is higher in “PBM E-score” value: 0.119 for the first, 0.266 for the second.

First: CGCGAAGC
Second: CGATCACG
The “PBM E-score” value of the first is lower: 0.00204 for the first, 0.11 for the second.

Compared with CGGCCACG, ACAGTCTC is lower in “PBM E-score” value: -0.189 for the first, -0.244 for the second.

Going from AGCGCAGG to ACTTAGAG, the “PBM E-score” value rises from -0.264 to -0.208.

First: CGGACTAC
Second: CAGCAGGC
The “PBM E-score” value of the first is higher: -0.0515 for the first, -0.0689 for the second.

Compared with GCACCTTA, CAGGATTC is higher in “PBM E-score” value: 0.00327 for the first, 0.0496 for the second.

Compared with GGAATTGA, ACTAATGA is higher in “PBM E-score” value: 0.0274 for the first, 0.07 for the second.

Going from GGGTTACA to ACGTATTA, the “PBM E-score” value rises from -0.0367 to 0.157.

First: CACTCGTA
Second: TCCGCTCA
The “PBM E-score” value of the first is higher: -0.138 for the first, -0.209 for the second.

Compared with ATTGAAAC, AGCCGGTG is lower in “PBM E-score” value: 0.0381 for the first, -0.144 for the second.

Compared with CTCGCAGA, ATCCTACC is lower in “PBM E-score” value: -0.0145 for the first, -0.182 for the second.

First: ACGTCCAT
Second: GAGGGTAC
The “PBM E-score” value of the first is higher: 0.219 for the first, -0.202 for the second.

First: AGGTGATC
Second: CTAGTGGC
The “PBM E-score” value of the first is higher: 0.0669 for the first, -0.0686 for the second.

Compared with AACAGGTA, AATAGGCC is lower in “PBM E-score” value: -0.0409 for the first, -0.113 for the second.

Going from CGTCGAAC to AGACAAAC, the “PBM E-score” value rises from -0.0425 to 0.446.

Compared with CTTTAATA, ACATGCAG is lower in “PBM E-score” value: 0.193 for the first, 0.152 for the second.

Going from CTACCGAG to AGCAAGCC, the “PBM E-score” value falls from -0.171 to -0.232.

Going from CCGGATGA to AAGCGTGA, the “PBM E-score” value falls from 0.0502 to 0.0467.

First: CCTCGACC
Second: CTCAGCGA
The “PBM E-score” value of the first is lower: -0.274 for the first, 0.14 for the second.

First: CCACCCGG
Second: AACAAACT
The “PBM E-score” value of the first is lower: -0.204 for the first, 0.127 for the second.

First: ACTCAAAG
Second: AGTGGTCA
The “PBM E-score” value of the first is higher: 0.0435 for the first, -0.147 for the second.

Going from ATGAGGTC to CAAACGAA, the “PBM E-score” value rises from -0.152 to 0.0846.

First: CCAAGACG
Second: ACTGTCCA
The “PBM E-score” value of the first is lower: 0.0171 for the first, 0.0386 for the second.

Going from CTTGTCGA to AACCTATA, the “PBM E-score” value rises from 0.0891 to 0.109.

Compared with AGCTGGTC, CGTCTAAG is higher in “PBM E-score” value: -0.0428 for the first, 0.0381 for the second.

First: ATCGACAG
Second: GTTGTCTA
The “PBM E-score” value of the first is lower: -0.201 for the first, 0.165 for the second.

First: CACACAGA
Second: ACCTGGAT
The “PBM E-score” value of the first is higher: -0.00294 for the first, -0.0377 for the second.

Going from TATCGATA to AGCCTAAG, the “PBM E-score” value falls from 0.043 to -0.183.

Compared with ACGCGTAT, GGAGTAGA is lower in “PBM E-score” value: 0.217 for the first, 0.0313 for the second.

First: ACTGTTTC
Second: ACCTATCT
The “PBM E-score” value of the first is lower: -0.119 for the first, 0.0511 for the second.

Going from AGCCCGAC to GATCGAGC, the “PBM E-score” value falls from -0.0378 to -0.0432.

First: GACCCCTA
Second: AATGAGGG
The “PBM E-score” value of the first is lower: -0.323 for the first, -0.104 for the second.

First: GACAAAGC
Second: CTTGCACA
The “PBM E-score” value of the first is higher: 0.393 for the first, 0.00485 for the second.

Going from CCCACGTC to CGCGGCAG, the “PBM E-score” value falls from 0.12 to -0.0189.

First: AGAGCCAT
Second: GCCAGTCC
The “PBM E-score” value of the first is higher: 0.148 for the first, -0.367 for the second.

Compared with AGACCCCG, CTGCACTC is lower in “PBM E-score” value: -0.0375 for the first, -0.185 for the second.

First: CAGTTCCG
Second: AAATTTGG
The “PBM E-score” value of the first is lower: -0.0923 for the first, 0.104 for the second.

First: ATAAGCGC
Second: ATGAGTCC
The “PBM E-score” value of the first is lower: -0.0259 for the first, 0.101 for the second.

First: CACGCAAG
Second: ACTGCACC
The “PBM E-score” value of the first is higher: 0.168 for the first, -0.0307 for the second.

Going from GTTAGTCA to CGGGGACA, the “PBM E-score” value rises from 0.00798 to 0.396.

Going from AACCGTGT to AGTGCCGG, the “PBM E-score” value rises from 0.107 to 0.112.

Going from GTTTGCCA to AAACCCAT, the “PBM E-score” value rises from -0.0238 to 0.219.

Compared with ACGAGACG, ATGATGGG is higher in “PBM E-score” value: -0.186 for the first, -0.131 for the second.

First: GCGTCAAC
Second: AGCTTGAT
The “PBM E-score” value of the first is lower: -0.135 for the first, -0.0595 for the second.

Going from CACTAAGC to ATAGCAAG, the “PBM E-score” value rises from -0.138 to -0.0015.

Compared with CCGCGTAA, ATGCGCTA is higher in “PBM E-score” value: -0.0612 for the first, 0.0715 for the second.

First: CTTAAGAC
Second: TAGTCAAA
The “PBM E-score” value of the first is lower: -0.0376 for the first, 0.0718 for the second.

Going from CATTGAGC to CGAAGAGC, the “PBM E-score” value falls from 0.0312 to -0.155.

Going from ACGGTCCT to CGATCTTA, the “PBM E-score” value rises from -0.252 to 0.0983.

Going from TTACGGAA to CGTAAAAG, the “PBM E-score” value falls from 0.139 to 0.0215.

First: CGATGCGC
Second: AACGATAT
The “PBM E-score” value of the first is lower: -0.00688 for the first, 0.153 for the second.

First: CAACTCAA
Second: CTGAGGCA
The “PBM E-score” value of the first is higher: 0.168 for the first, -0.0849 for the second.

First: AAAATCGA
Second: GCGTCTGA
The “PBM E-score” value of the first is higher: 0.0831 for the first, -0.101 for the second.

First: AAAATCCG
Second: ATACTATA
The “PBM E-score” value of the first is higher: 0.141 for the first, 0.111 for the second.

Going from ACACCAGA to CCAAGGGC, the “PBM E-score” value falls from 0.0811 to -0.126.

Compared with AAACGTTA, CGGAACCG is lower in “PBM E-score” value: 0.119 for the first, 0.0482 for the second.

Going from CGTAACCA to CCTTCCCC, the “PBM E-score” value falls from -0.00232 to -0.246.

Going from CGCATGTC to GATACATA, the “PBM E-score” value falls from 0.426 to 0.152.

Compared with CACGAGAG, AATGGGAT is higher in “PBM E-score” value: -0.22 for the first, -0.125 for the second.

Compared with CTAATCTC, TCAGCTAA is higher in “PBM E-score” value: -0.0562 for the first, -0.0447 for the second.

Going from GACCTGAA to CGCGCGAG, the “PBM E-score” value falls from -0.00534 to -0.07.

Compared with AGAACAAA, CAGCTAGC is lower in “PBM E-score” value: 0.303 for the first, -0.19 for the second.

Compared with AAAGTGGG, AATTATAT is higher in “PBM E-score” value: -0.024 for the first, 0.138 for the second.

Compared with AATGGACT, CTGACTGA is lower in “PBM E-score” value: 0.19 for the first, -0.227 for the second.

Compared with CGGTTTAC, TTTAGAAA is higher in “PBM E-score” value: -0.155 for the first, 0.0834 for the second.

Going from CGATCTCC to AGTCCTGA, the “PBM E-score” value rises from 0.00678 to 0.242.

Compared with GCTCTATA, GATCATGC is higher in “PBM E-score” value: -0.228 for the first, -0.168 for the second.

First: GTTCCAAA
Second: CTAGGGTA
The “PBM E-score” value of the first is higher: 0.12 for the first, -0.203 for the second.

First: ACCTCGAC
Second: AATAGCAG
The “PBM E-score” value of the first is higher: -0.00429 for the first, -0.153 for the second.

Going from AATCGGTG to ATTCTATC, the “PBM E-score” value rises from -0.0473 to 0.121.

First: AGGACACC
Second: ACCGCTGA
The “PBM E-score” value of the first is higher: 0.255 for the first, -0.0555 for the second.
